From PMC4336329 (PLoS ONE, 2015)
Hit rate of the full screen: of about 310,000 compounds, about 2,200 (0.71%) showed an effect of 50% or more. Effects have a minus sign here. The list shows a part of the results.

Target: human ether-à-go-go-related gene (hERG) potassium channel (human, UniProt Q12809)
Assay: primary screen, population patch clamp on CHO cells stably expressing hERG

Sequence of human ether-à-go-go-related gene (hERG) potassium channel (Q12809 whole entry, looked up): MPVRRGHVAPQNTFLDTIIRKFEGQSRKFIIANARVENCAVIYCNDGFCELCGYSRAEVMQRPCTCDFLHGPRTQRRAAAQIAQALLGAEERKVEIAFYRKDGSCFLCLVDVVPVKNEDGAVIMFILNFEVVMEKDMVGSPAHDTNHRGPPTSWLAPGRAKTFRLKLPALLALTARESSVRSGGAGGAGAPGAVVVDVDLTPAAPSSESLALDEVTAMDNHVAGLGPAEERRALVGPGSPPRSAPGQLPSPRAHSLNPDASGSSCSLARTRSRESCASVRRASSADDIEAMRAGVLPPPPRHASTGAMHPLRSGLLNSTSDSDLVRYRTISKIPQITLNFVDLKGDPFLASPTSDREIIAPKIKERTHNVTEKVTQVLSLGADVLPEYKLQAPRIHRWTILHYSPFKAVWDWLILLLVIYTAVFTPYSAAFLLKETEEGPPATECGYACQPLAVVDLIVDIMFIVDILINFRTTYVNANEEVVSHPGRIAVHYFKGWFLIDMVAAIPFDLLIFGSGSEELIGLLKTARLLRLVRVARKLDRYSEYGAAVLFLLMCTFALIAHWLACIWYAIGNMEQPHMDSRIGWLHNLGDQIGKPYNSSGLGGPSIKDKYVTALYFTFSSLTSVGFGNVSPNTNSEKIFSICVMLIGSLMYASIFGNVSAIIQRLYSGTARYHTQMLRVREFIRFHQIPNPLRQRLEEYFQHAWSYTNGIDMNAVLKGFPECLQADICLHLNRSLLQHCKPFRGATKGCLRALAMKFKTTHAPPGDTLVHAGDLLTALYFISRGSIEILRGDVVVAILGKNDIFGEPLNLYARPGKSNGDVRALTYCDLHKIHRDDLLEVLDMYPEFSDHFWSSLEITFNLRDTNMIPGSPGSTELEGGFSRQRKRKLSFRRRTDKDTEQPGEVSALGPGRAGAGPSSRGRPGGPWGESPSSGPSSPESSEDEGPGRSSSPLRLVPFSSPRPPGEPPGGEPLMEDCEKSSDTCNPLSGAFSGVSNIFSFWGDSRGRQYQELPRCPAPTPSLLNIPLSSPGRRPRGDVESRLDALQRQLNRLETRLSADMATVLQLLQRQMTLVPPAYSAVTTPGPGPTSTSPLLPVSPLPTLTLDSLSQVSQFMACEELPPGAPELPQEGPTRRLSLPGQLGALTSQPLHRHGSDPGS

| SMILES | hERG current change (%, negative = inhibition) at 1uM |
| --- | --- |
| O=C1CC(N2CCN(c3ccccc3O)CC2)C(=O)N1Cc1ccccc1 (stereo not drawn) | 15.3% |
| O=C(CN(C(=O)c1csnn1)c1ccccc1Cl)NCCc1ccccc1 | 10.8% |
| CCOc1ccc(N2C(=O)C3C(c4ccc(O)cc4)NC(CCSC)(C(=O)OC)C3C2=O)cc1 (stereo not drawn) | 4.05% |
| CC1CCCCN1C(C(=O)O)c1ccccc1.Cl (stereo not drawn) | 17.1% |
| COc1cc(/C=N/NS(=O)(=O)c2ccc(C)c([N+](=O)[O-])c2)ccc1O | 11.9% |
| Cc1cccc(-c2nnc3n2N=C(c2ccc(Br)cc2)CS3)c1 | -18.7% |
| COc1ccccc1OCC(=O)Nc1ccccc1C(=O)N1CCCC1 | 5.81% |
| CNC(=O)CSc1nnc(-c2cnccn2)n1C | 11% |
| O=C(Cn1c(COc2ccccc2)nc2ccccc21)Nc1cccc(Cl)c1 | 10.8% |
| O=C(NCc1n[nH]c(=S)n1-c1ccc(F)cc1)c1ccco1 | -0.204% |
| O=S(=O)(c1ccc(Cl)cc1)N1CCC(O)(c2cccnc2)CC1 | 5.94% |
| CC(C)C(OC(=O)CN1C(=O)c2ccccc2C1=O)C(=O)NC1CCCC1 (stereo not drawn) | 19.6% |
| Cc1ccc(Oc2ccc(NC(=O)CCC(=O)OCC(=O)c3cccs3)cc2)cc1C | 7.01% |
| CCOC(=O)CNC(=O)N1CCCC(C(=O)c2cc(C)c(OC)c(C)c2)C1 (stereo not drawn) | 14.4% |
| Cc1ccc(-c2c(CC(=O)O)c(C)nc3sc4c(c23)CCCC4)cc1.Cl | 13.6% |
| COc1ccc(-n2c(=S)[nH]c3cc(C(=O)NCCCN4CCCC4=O)ccc3c2=O)cc1OC | 15.3% |
| CC(Sc1nnc(COc2ccc([N+](=O)[O-])cc2)n1-c1ccccc1)C(=O)O (stereo not drawn) | 6.23% |
| COc1c(C)cc(C(=O)C2CCCN(C(=O)c3ccc4cc[nH]c4c3)C2)cc1C (stereo not drawn) | 12.5% |
| Cc1csc2ncc(C(=O)NCc3ccccc3Cl)c(=O)n12 | 7.61% |
| COc1ccccc1OCc1ccc(C(=O)NCc2cccnc2)o1 | 7.68% |
| O=C(CC1CC2CCC1C2)OCC(=O)c1c[nH]c2ccccc12 (stereo not drawn) | 10.4% |
| O=C(NCC(c1cccs1)N1CCc2ccccc21)c1ccccc1 (stereo not drawn) | 4.64% |

| SMILES | hERG current change (%, negative = inhibition) at 1uM |
| --- | --- |
| COc1ccc(OC)c(NC(=O)Cn2cc(C#N)c3ccccc32)c1 | 9.76% |
| CCOC(=O)c1c(N)sc(C(=O)Nc2ccccc2F)c1C | 21% |
| Cc1oc(-c2ccccc2Cl)nc1CN1CCCCC1c1cccnc1 (stereo not drawn) | 3.12% |
| CN(C)/C=C(\C#N)C(=O)N/N=C/c1ccccc1 | 5.17% |
| Cc1ccc(NC(=O)c2sc3nc(C)cc(C)c3c2N)cc1 | 19.3% |
| O=C(Nc1ccc(Br)cn1)c1cccc2c1-c1ccccc1C2=O | 8.1% |
| CCC1CCCCN1C(=O)COC(=O)c1n[nH]c2ccccc12 (stereo not drawn) | -5.75% |
| Cc1ccc(/C=C/c2nc3ccccc3[nH]2)o1 | 10.5% |
| COc1cc(OC)c(C2=NOC(C(=O)Nc3c(C)nn(CC(=O)N4CCCC4)c3C)C2)cc1Cl (stereo not drawn) | 3.25% |
| CCCc1cc(=O)[nH]c(SCC(=O)Nc2sc3c(c2C#N)CCCC3)n1 | 4.53% |
| COc1ccc(N(CC(O)Cn2c(C)nc3ccccc32)S(=O)(=O)c2ccccc2)cc1 (stereo not drawn) | 2.4% |
| CCOC(=O)c1ccc(NC(=O)CN2C(=O)CCC2=O)cc1 | 11.5% |
| Cc1cc(NC(=O)c2ccc(F)cc2)n(C)n1 | 10% |
| O=C(Nc1ccccc1)c1ccccc1OCc1ccc(F)cc1 | 15.8% |
| OC1CCN(c2cc(-c3ccccc3)nc3cc(-c4ccc(F)cc4)nn23)CC1 | 7.59% |
| COc1ccc(NC(=O)CSCC(=O)NCc2cccc(C(F)(F)F)c2)cc1 | 9.74% |
| Cc1ccc(-n2c(C)cc(C=C3C(=O)CC(C)(C)CC3=O)c2C)cc1 | 3.36% |
| O=C(NCCCN1CCCC1=O)Nc1ccc(Cl)cc1 | 4.59% |
| Cc1ccc(-n2ncc3c(N4CCN(c5ccc(F)cc5)CC4)ncnc32)c(C)c1 | 15.1% |
| Cc1ccc(NC(=S)NNC(=S)NCc2ccccc2)cc1 | 11.2% |
| CCN1C(=O)[C@H]2[C@@H](c3ccc(-c4cc(C(C)=O)cs4)cc3)N3CCC[C@@]3(C(=O)OC)[C@H]2C1=O.O=C(O)C(F)(F)F | 8.31% |
| COc1ccc(Cl)cc1NC(=O)CCn1c(=O)oc2ccccc21 | 9.53% |

| SMILES | hERG current change (%, negative = inhibition) at 1uM |
| --- | --- |
| Cc1sc2nc(SCC(=O)N(C)Cc3ccccc3)n(-c3ccccc3)c(=O)c2c1C | 13.1% |
| Cc1cc(=O)oc2cc(NC(=O)CC3(CC(=O)O)CCCC3)ccc12 | 7.35% |
| CCOC(=O)c1c(NC(=O)COC(=O)Cc2n[nH]c(=O)c3ccccc23)sc(C(=O)N(C)C)c1C | 9.98% |
| CC1(C)O[C@@H]2[C@H](O1)[C@@H](CO)O[C@H]2n1c(N2CCCCC2)nc2c(N)ncnc21 | 5.18% |
| Cc1cccc(-n2c(O)c(/C=N/NC(=O)c3ccccc3Cl)c3ccccc3c2=O)n1 | 9.11% |
| CCOc1cc(N2CCOCC2)c(OCC)cc1NC(=O)COC(=O)c1cc2ccccc2cc1O | 4.74% |
| Nc1ccc(S(=O)(=O)NC2=NCCCCC2)cc1N | 12.2% |
| C(=N\n1cnnc1)/c1cccc(Oc2ccccc2)c1 | 10.7% |
| Cc1ccc(C(=O)Nc2ccc(F)cc2)cc1NC1=NC2CS(=O)(=O)CC2S1 (stereo not drawn) | 10.6% |
| COn1c(-c2ccccc2)c(C=O)c2ccccc21 | 12.2% |
| Cc1cc(F)ccc1NC(=O)c1cc(S(=O)(=O)N2CCOCC2)cn1C | -5.95% |
| COCC(=O)N1CCC(Oc2ccc(C(=O)NCc3cc(C)n(C)n3)cc2)CC1 | 9.09% |
| CCNC(=O)/C(C#N)=C/c1c(N2CCN(c3ccccc3)CC2)nc2ccccn2c1=O | -4.54% |
| O=C(COC(=O)c1ccccc1Cl)NCCC1=CCCCC1 | 9.59% |
| COc1ccc(C(=O)NN=C2CCCC2)cc1 | 3.9% |
| O=C(O)C1CCCCN1C(=O)c1cc2c(s1)CCCCC2 (stereo not drawn) | 4.32% |
| CN1CCN(C(=O)C2CC(c3c(F)cccc3Cl)=NO2)CC1 (stereo not drawn) | 7.33% |
| COc1ccc(N2CCN(CC(=O)NC(C)c3ccccc3)CC2)cc1 (stereo not drawn) | 21.1% |
| Cc1cc(C)c(C)c(OCCNCc2ccccc2)c1.O=C(O)C(=O)O | 9.09% |
| CC(=O)N1CCC2(CC1)C(C#N)=C(N)OC1=C2C(=O)CC(C)(C)C1 | 13.8% |
| Cc1occc1C(=O)Nc1ccc2ccccc2c1 | 15.4% |
| Cc1onc(-c2ccccc2)c1C(=O)c1c[nH]c(C(=O)NCCCN2CCOCC2)c1 | 9.35% |

| SMILES | hERG current change (%, negative = inhibition) at 1uM |
| --- | --- |
| COc1ccc(N2CCN(C(c3ccc4ncccc4c3)c3nnnn3C(C)C)CC2)cc1 (stereo not drawn) | -11.9% |
| COc1ccc(C(=O)Nc2nnc(C(F)(F)F)s2)cc1 | 58.1% |
| Cn1c(=O)c2c(nc(CN3CCN(Cc4ccccc4)CC3)n2Cc2ccc(Cl)cc2)n(C)c1=O | -31.1% |
| COc1ccc(-c2noc(-c3ccccc3-c3ccccc3)n2)cc1 | 2.9% |
| Nc1nc(SCC(=O)Nc2ccc(F)cc2)[nH]c(=O)c1NC(=O)c1ccc(F)c(F)c1 | 10.7% |
| COc1ccc(-n2cnc3scc(-c4ccc(OC)c(OC)c4)c3c2=O)cc1 | 9.03% |
| O=c1cc(-c2cccc(Br)c2)nc(-c2ccccc2F)o1 | 15.6% |
| O=C(OCc1cccs1)c1ccccc1NS(=O)(=O)c1ccc2c(c1)OCCO2 | 14.3% |
| O=C(Nn1c(O)c(C=C2N=c3ccccc3=N2)sc1=S)c1ccccc1Cl | 0.388% |
| O=S(=O)(NCc1ccccc1)c1ccccc1Br | 3.62% |
| NS(=O)(=O)c1ccc(NC(=O)CSc2ncccn2)cc1 | 6.98% |
| Nc1c(N2CCN(c3ccccc3)CC2)c2ccccc2oc1=O | 1.19% |
| COc1cccc(CN2C(=O)CN(C3CCCCC3)C(=O)C2c2ccc(F)cc2)c1 (stereo not drawn) | -8.37% |
| O=C(N[C@H](C(=O)O)c1ccccc1)C1CCC(Cn2nnc3ccccc3c2=O)CC1 (stereo partly drawn) | -8.07% |
| Cc1ccc(/C=C/C(=O)NC(C)c2ccccc2)cc1 (stereo not drawn) | 7.75% |
| CC(=O)Nc1ccc(NC(=O)COC(=O)c2c(C)nn(-c3ccccc3)c2C)cc1 | 11.9% |
| COc1ccc(CCNCc2ccccn2)cc1OC | 2.18% |
| COc1ccccc1CNC(=O)CSc1nc2nc(C)cc(C)n2n1 | 0.145% |
| COc1cc(C(=O)NC2CCCc3ccccc32)ccc1OCC(=O)Nc1ccc(F)cc1 (stereo not drawn) | 13.1% |
| CCN(CC(=O)Nc1ccc2c(c1)OCCO2)C(=O)c1cc(=O)[nH]c2ccccc12 | 14% |
| N#C/C(=C\c1c(Oc2ccc(Cl)cc2)nc2ccccn2c1=O)C(=O)NC1CCS(=O)(=O)C1 (stereo not drawn) | 13.4% |
